# These are yes or no findings as the source states them, for the method shown. Binding seen in cells or lysates may run through a third protein. Some binding calls cover weakened binding; strength is not graded here. Where a sequence is shown, tags or fusion partners need not be part of it.
# Amino acid sequences for entries named in this document (tags omitted). A change or cut given only in a name is not applied to a line headed by its entry. Chains listed by the source or under a name are the forms on record and can include a tag or linker. Residues count along the entry.
# UniProt P61088: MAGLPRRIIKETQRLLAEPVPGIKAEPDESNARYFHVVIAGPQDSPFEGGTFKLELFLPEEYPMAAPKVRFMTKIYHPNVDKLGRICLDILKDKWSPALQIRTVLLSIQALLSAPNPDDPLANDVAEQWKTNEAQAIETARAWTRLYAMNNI
# UniProt P61086: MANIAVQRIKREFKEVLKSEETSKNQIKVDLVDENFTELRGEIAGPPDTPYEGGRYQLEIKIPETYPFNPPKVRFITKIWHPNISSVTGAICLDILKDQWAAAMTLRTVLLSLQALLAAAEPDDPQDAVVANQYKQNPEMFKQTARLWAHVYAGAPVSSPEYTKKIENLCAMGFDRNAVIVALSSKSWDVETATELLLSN
# UniProt O14933: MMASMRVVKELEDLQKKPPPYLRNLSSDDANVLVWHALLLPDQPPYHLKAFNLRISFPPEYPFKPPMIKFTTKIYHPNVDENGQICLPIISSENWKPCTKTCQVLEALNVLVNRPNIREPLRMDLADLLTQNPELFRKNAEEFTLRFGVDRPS
# UniProt O00762: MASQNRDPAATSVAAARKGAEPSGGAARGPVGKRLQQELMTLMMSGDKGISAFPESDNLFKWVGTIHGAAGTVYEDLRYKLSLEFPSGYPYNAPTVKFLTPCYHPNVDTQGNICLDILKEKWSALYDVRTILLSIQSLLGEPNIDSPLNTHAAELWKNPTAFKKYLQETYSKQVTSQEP
# UniProt P62256: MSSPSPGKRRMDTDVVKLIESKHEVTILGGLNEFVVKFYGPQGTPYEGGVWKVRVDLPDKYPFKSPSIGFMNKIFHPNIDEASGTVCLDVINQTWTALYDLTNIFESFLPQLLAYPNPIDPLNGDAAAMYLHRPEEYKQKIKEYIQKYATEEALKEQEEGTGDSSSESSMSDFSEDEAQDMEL
# UniProt P49427: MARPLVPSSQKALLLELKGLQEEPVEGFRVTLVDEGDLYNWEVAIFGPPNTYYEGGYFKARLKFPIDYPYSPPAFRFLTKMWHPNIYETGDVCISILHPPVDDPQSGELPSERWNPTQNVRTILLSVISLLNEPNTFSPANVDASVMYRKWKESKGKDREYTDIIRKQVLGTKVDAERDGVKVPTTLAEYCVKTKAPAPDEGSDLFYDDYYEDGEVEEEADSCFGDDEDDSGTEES
# UniProt P01106: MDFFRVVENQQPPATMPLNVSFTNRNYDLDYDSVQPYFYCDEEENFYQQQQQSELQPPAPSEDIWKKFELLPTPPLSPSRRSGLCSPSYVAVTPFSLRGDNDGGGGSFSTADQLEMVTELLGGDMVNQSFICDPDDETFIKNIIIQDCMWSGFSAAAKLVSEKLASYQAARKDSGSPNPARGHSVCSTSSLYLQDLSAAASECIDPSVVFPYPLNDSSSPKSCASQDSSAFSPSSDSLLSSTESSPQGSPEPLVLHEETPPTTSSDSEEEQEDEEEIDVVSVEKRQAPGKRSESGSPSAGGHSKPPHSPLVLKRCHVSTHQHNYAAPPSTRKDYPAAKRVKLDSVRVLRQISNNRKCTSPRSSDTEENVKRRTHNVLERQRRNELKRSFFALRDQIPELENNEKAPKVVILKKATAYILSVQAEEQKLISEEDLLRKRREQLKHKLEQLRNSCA
# Myc-tagged c-Myc: residues 16-454 of P01106
# HA-tagged c-Myc DNA-binding domain (aa 143-355): residues 158-370 of P01106
# T1: ELL (tag not told for this experiment) (human) (UniProt P55199)
# T1 sequence: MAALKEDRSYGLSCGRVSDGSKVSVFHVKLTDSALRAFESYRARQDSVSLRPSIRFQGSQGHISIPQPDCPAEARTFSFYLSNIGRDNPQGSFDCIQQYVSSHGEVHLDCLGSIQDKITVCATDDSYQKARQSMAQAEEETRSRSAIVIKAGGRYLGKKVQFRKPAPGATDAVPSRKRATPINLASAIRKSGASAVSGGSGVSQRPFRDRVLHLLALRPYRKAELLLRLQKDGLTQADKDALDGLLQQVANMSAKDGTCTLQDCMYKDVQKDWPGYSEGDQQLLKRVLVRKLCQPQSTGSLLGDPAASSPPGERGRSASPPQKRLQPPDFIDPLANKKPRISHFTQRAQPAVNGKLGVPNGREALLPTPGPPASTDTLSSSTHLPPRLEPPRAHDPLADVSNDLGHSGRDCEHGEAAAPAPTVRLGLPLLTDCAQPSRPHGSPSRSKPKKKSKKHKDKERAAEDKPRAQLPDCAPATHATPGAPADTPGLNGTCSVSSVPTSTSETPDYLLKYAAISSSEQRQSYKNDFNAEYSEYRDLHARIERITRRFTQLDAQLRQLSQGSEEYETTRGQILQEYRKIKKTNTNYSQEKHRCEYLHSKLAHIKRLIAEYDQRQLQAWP
# T2: Flag-ELL (human) (UniProt P55199)
# T2 sequence: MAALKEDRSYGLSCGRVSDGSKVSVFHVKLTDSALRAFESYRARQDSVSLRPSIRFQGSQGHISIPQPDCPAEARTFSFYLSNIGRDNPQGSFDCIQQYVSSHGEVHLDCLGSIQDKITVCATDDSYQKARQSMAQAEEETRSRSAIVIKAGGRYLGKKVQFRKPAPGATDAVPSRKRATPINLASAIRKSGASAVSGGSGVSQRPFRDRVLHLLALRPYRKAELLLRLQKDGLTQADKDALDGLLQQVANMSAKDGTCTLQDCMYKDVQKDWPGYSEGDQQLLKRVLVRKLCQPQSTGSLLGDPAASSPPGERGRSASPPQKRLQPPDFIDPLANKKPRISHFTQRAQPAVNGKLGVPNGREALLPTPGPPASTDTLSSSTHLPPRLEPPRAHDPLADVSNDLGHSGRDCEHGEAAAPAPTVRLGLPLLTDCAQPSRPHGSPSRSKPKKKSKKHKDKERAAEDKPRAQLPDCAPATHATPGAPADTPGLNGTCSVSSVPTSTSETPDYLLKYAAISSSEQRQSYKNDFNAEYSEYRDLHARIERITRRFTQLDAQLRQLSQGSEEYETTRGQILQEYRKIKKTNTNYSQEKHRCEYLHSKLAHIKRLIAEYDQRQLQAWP
# Target: T1, ELL (tag not told for this experiment) (human)
# Assay: co-IP; ELL and 11 E2 enzymes cloned into the CMV-Myc expression vector; cells and the tag of ELL not told
row,Molecule,binding
1,Ubc13 (from UniProt P61088 1-152) (enzyme),no binding
2,UbcH1 (from UniProt P61086 1-200) (enzyme),no binding
3,UbcH8 (from UniProt O14933 1-153) (enzyme),binds
4,UbcH10 (from UniProt O00762 1-179) (enzyme),no binding

# Now from value to molecule:
row,binding,Molecule
1,no binding,UbcH2 (from UniProt P62256 1-183) (enzyme)
2,no binding,UbcH3 (from UniProt P49427 1-236) (enzyme)

# Target: T2, Flag-ELL (human)
# Assay: co-IP; tagged proteins overexpressed by co-transfection in HEK293 or HEK293T cells; antibody-conjugated agarose beads (anti-c-Myc, anti-HA, anti-Flag); 2-3 times more HA-c-Myc plasmid where ELL was co-transfected
row,binding,Molecule
1,binds,HA-c-Myc (from UniProt P01106-1 1-439)
2,no binding,HA-tagged c-Myc DNA-binding domain (aa 143-355) (from UniProt P01106-1 143-355) (domain or fragment)

# Target: Myc-tagged c-Myc (human) (UniProt P01106)
# Assay: as above
row,binding,Molecule
1,binds,"HA-ELL (protein, UniProt P55199 1-621) MAALKEDRSYGLSCGRVSDGSKVSVFHVKLTDSALRAFESYRARQDSVSLRPSIRFQGSQGHISIPQPDCPAEARTFSFYLSNIGRDNPQGSFDCIQQYVSSHGEVHLDCLGSIQDKITVCATDDSYQKARQSMAQAEEETRSRSAIVIKAGGRYLGKKVQFRKPAPGATDAVPSRKRATPINLASAIRKSGASAVSGGSGVSQRPFRDRVLHLLALRPYRKAELLLRLQKDGLTQADKDALDGLLQQVANMSAKDGTCTLQDCMYKDVQKDWPGYSEGDQQLLKRVLVRKLCQPQSTGSLLGDPAASSPPGERGRSASPPQKRLQPPDFIDPLANKKPRISHFTQRAQPAVNGKLGVPNGREALLPTPGPPASTDTLSSSTHLPPRLEPPRAHDPLADVSNDLGHSGRDCEHGEAAAPAPTVRLGLPLLTDCAQPSRPHGSPSRSKPKKKSKKHKDKERAAEDKPRAQLPDCAPATHATPGAPADTPGLNGTCSVSSVPTSTSETPDYLLKYAAISSSEQRQSYKNDFNAEYSEYRDLHARIERITRRFTQLDAQLRQLSQGSEEYETTRGQILQEYRKIKKTNTNYSQEKHRCEYLHSKLAHIKRLIAEYDQRQLQAWP"

# From publication PMC4820845
